Out of some 310,000 compounds screened, about 14,000 (4.5%) showed an effect of 50% or more. The effect is printed as a negative number. Some of the results follow.
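Also: peak tail current of the secondary pulse compared with the same well before compound.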

The experiment deals with human ether-à-go-go-related gene (hERG) potassium channel (human, UniProt Q12809). The experiment is described as follows: primary screen, population patch clamp on CHO cells stably expressing hERG.
Chain of human ether-à-go-go-related gene (hERG) potassium channel (Q12809 whole entry, looked up): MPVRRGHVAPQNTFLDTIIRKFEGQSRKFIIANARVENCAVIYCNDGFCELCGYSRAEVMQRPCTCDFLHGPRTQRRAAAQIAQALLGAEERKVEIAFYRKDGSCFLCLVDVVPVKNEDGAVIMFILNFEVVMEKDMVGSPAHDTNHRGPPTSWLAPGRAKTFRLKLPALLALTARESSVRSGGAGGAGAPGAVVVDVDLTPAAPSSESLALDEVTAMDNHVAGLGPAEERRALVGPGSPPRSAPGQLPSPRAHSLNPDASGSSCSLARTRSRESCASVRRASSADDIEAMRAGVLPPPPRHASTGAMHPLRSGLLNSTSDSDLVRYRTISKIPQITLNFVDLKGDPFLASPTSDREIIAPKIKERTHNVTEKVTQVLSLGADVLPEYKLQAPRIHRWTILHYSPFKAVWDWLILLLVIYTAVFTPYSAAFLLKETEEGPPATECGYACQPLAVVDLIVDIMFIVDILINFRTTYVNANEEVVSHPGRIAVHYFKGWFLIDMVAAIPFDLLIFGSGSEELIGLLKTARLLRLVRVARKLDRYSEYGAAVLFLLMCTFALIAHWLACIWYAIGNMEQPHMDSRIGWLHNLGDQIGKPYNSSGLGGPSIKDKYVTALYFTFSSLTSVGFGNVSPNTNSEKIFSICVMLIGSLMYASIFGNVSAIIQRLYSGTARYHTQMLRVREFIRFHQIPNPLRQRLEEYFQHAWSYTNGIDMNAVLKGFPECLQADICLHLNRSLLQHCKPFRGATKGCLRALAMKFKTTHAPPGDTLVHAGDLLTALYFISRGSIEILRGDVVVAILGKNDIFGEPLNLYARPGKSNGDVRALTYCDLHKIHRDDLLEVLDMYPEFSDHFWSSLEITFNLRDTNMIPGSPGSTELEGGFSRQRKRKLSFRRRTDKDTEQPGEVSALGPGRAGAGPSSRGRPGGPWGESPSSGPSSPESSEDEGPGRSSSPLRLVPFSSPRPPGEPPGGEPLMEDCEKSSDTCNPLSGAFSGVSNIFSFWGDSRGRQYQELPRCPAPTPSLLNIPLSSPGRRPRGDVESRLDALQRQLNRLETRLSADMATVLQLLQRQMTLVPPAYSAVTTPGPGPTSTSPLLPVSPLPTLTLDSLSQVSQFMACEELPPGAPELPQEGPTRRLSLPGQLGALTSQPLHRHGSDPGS
Turning to `Cc1ccc(-n2c(=O)cc(N3CCN(Cc4ccccc4)CC3)[nH]c2=O)cc1`, the “hERG current change (%, negative = inhibition) at 10uM” value is 2.26%. The figure for `CN1CCN(NC(=O)c2ccc(Cl)c(S(=O)(=O)Nc3ccc(Cl)cc3)c2)CC1.Cl` is -7.08%; for `CC(=O)c1ccc(OC(C)C)c(CN2CCCCC2)c1.Cl` it is 0.071%. The figure for `CCN1CCc2c(sc(NC(=O)c3ccc(S(=O)(=O)N4CC(C)OC(C)C4)cc3)c2C(N)=O)C1` (stereo not drawn) is -54.5%; for `COc1ccc(CN2CCN(C(=O)c3ccc(F)cc3)CC2)c(OC)c1.O=C(O)C(=O)O` it is -44.3%; for `COc1ccccc1-c1ccc(=O)n(CC(=O)NCc2ccco2)n1` it is -10.1%. Regarding `Cc1ccccc1CN1C(=O)[C@H]2Cc3c([nH]c4ccccc34)C(C)(C)N2C1=O`, the “hERG current change (%, negative = inhibition) at 10uM” value turned out to be 14%.

On to `CNC(=S)N1CCc2cc(OC)c(OC)cc2C1COc1ccc(OC)cc1` (stereo not drawn), for which the “hERG current change (%, negative = inhibition) at 10uM” value was -7.03%. For the molecule `COc1ccc2c(c1)c(C(=O)CN1CCOCC1)c(C)n2C`, the “hERG current change (%, negative = inhibition) at 10uM” value is -6.42%. The same measure for `COc1ccc(Cl)cc1N1C(=NC(=O)C2CCCO2)SC2CS(=O)(=O)CC21` (stereo not drawn): -41.3%. Consider `CCOc1ccc(C)cc1-n1nc2ccccc2n1`, for which the “hERG current change (%, negative = inhibition) at 10uM” value is listed as -1.41%. The figure for `O=C(CSCC(=O)NC1CCCC1)Nc1ccccc1` is 4.17%. The figure for `CCN1C(=NCc2ccccc2)N[C@@H](c2ccccc2)[C@H](C(=O)OC)[C@H]1C` is 2.51%; for `Cc1cc(N2CCN(C)CC2)nc2ccc(NC(=O)CCC(=O)NCCC(C)C)cc12` it is 13.8%; for `Cc1cc(C)cc(NC(=O)COC(=O)c2cc(=O)[nH]c(=O)[nH]2)c1` it is 6.61%. As for `COc1cc(-c2nc3ccc(C)cn3c2NCc2ccccc2)ccc1SC1CCCCC1.O=C(O)C(F)(F)F`, the “hERG current change (%, negative = inhibition) at 10uM” value was found to be 10.2%.

On to `CCOC(=O)c1c(C)[nH]c(C(=O)C(C)OC(=O)c2cnc(C)cn2)c1C` (stereo not drawn), for which the “hERG current change (%, negative = inhibition) at 10uM” value is reported as -0.804%. For the molecule `Cc1ncoc1C(=O)N1CCCC(CCC(=O)NCc2ccccc2F)C1` (stereo not drawn), the “hERG current change (%, negative = inhibition) at 10uM” value was -6.93%.

`Cc1cnc(-c2nnc(N(C)C(=O)C3CCOC3)s2)cn1` (stereo not drawn): the “hERG current change (%, negative = inhibition) at 10uM” value is -0.297%. The same measure for `CN(C)S(=O)(=O)c1ccc(NC(=O)COC(=O)c2n[nH]c3ccccc23)cc1`: -0.665%; for `C/C(=N\NC(=S)NC(C)C)c1cccc([N+](=O)[O-])c1`: -42.6%; for `O=C(COC(=O)c1cccnc1Cl)Nc1cccc(S(=O)(=O)N2CCCCC2)c1`: -13.5%. For `CCCCNC(=O)C1CCN(C(=O)C2CCN(S(=O)(=O)c3ccc(C)cc3)CC2)CC1`, the “hERG current change (%, negative = inhibition) at 10uM” value was -16.9%. The same measure for `CCN(CC)CCN(C(=O)c1ccc2c(c1)OCCO2)c1nc2ccc(C)cc2s1.Cl`: -71.2%; for `COCC(=O)NCCSc1c(C)[nH]c2ccccc12`: 4.37%; for `O=S(=O)(c1ccc(Cl)cc1)N1CCN(c2ncccn2)CC1`: 28.4%. For `Cc1c(N=c2scc(-c3ccccc3)n2C)c(=O)n(-c2ccccc2)n1C`, the “hERG current change (%, negative = inhibition) at 10uM” value is -7.61%. Take `CC1CN(C(=O)/C(C#N)=C2\N=C(NC(=O)c3ccc(F)cc3)c3ccccc32)CC(C)O1` (stereo not drawn): the “hERG current change (%, negative = inhibition) at 10uM” value is listed as 14.1%. The same measure for `CCCNC(=S)N1CC2(C)CN(C(=O)C(=O)OCC)CC(C)(C1)C2=O`: 4.15%. In the case of `COC(=O)[C@H](Cc1ccccc1)NC(=O)Cn1ccc(NC(=O)OCc2ccccc2)nc1=O`, the “hERG current change (%, negative = inhibition) at 10uM” value is recorded as -23.5%.

Turning to `CCOc1ccc(S(=O)(=O)NCCC(=O)NC2CCN(Cc3ccccc3)CC2)cc1`, the “hERG current change (%, negative = inhibition) at 10uM” value is reported as -21.8%.

Regarding `Cc1csc(NC(=O)CSc2nnc(-c3ccncc3)n2C)n1`, the “hERG current change (%, negative = inhibition) at 10uM” value was -17.5%. The figure for `COCCC(C(=O)Oc1c(C(C)(C)C)cc(C)cc1C(C)(C)C)c1ccccc1` (stereo not drawn) is 18.5%.

On to `CN(NC(=O)c1cccc(Cl)c1)c1nc(-c2ccccc2)nnc1C(F)(F)F`, for which the “hERG current change (%, negative = inhibition) at 10uM” value was found to be 9.44%. The figure for `COc1ccc(/C=C(/NC(=O)c2ccco2)C(=O)Nc2ccc(C(C)=O)cc2)cc1` is 16.5%.

On to `COc1cccc2cc(C(=O)CS(=O)(=O)c3ccc(Cl)cc3)c(=O)oc12`, for which the “hERG current change (%, negative = inhibition) at 10uM” value is reported as -0.205%. The figure for `Cl.OC(CN1C2=NCCCN2c2ccccc21)c1ccc2c(c1)OCO2` (stereo not drawn) is -70.2%; for `CC1(C)CC(=O)C2=C(C1)NC(SCC(=O)Nc1ccccc1)=C(C#N)C2c1ccco1` (stereo not drawn) it is -5.44%; for `CCn1ncc(C2C(C(=O)Nc3ccc(C)cn3)=C(C)NC3=C2C(=O)CCC3)c1C` (stereo not drawn) it is 7.67%. For `CC(C)NC(=O)CSc1nnc(-c2ccncc2)n1-c1ccccc1`, the “hERG current change (%, negative = inhibition) at 10uM” value was 11.6%. The figure for `COc1cccc(N/C(SCc2cccc([N+](=O)[O-])c2)=C(/C#N)C(N)=O)c1` is -19.9%.

For `Cc1ccc(C(=O)Nc2cc(Cl)ccc2N2CCCCC2)s1`, the “hERG current change (%, negative = inhibition) at 10uM” value was 13.3%.

With `CC1=C(C(=O)OCc2ccccc2)C(c2ccc(Cl)cc2Cl)NC(=O)N1CCCCCC(=O)O` (stereo not drawn), the “hERG current change (%, negative = inhibition) at 10uM” value was -16.2%. As to `COc1ccc(Cc2c(N)nc(N)nc2N)cc1`, the “hERG current change (%, negative = inhibition) at 10uM” value came out at 12.7%.

With `O=C(N/N=C/c1ccco1)c1ccc(OCc2ccccc2)cc1`, the “hERG current change (%, negative = inhibition) at 10uM” value was found to be 10.9%. The same measure for `O=C(COc1ccc(F)cc1)Nc1ccc2c(c1)OCCO2`: 5.63%; for `OC(Cn1cncn1)c1ccc(Cl)cc1Cl` (stereo not drawn): 7.9%. Turning to `CC(C)Nc1nc(NC(C)C)nc(N(C#N)CCOc2ccc(Cl)cc2Cl)n1`, the “hERG current change (%, negative = inhibition) at 10uM” value is given as 8.24%. Consider `CC1CCN(C(=O)CNC(=O)Cn2ccc3ccccc3c2=O)CC1`, for which the “hERG current change (%, negative = inhibition) at 10uM” value is reported as 4.54%. On to `[N-]=[N+]=NCCN1CCN(Cc2ccccc2)CCC1=O`, for which the “hERG current change (%, negative = inhibition) at 10uM” value is recorded as -1.88%. For `O=C(CCc1ccc(S(=O)(=O)N2CCOCC2)cc1)Nc1ccc2c(c1)OCCO2`, the “hERG current change (%, negative = inhibition) at 10uM” value came out at 2.23%. The same measure for `CC(C)(C)NC(NC(=O)Cc1ccccc1)C(Cl)(Cl)Cl` (stereo not drawn): 2.38%; for `COc1cc(OC)c(OC)cc1C=NCC1(c2ccccc2)CCCC1.Cl`: 12.1%. On to `Cc1ccc(NC(=O)CN2C(=O)S/C(=C\c3cc(Cl)c(OCC(=O)O)c(Cl)c3)C2=O)cc1`, for which the “hERG current change (%, negative = inhibition) at 10uM” value is listed as 19.3%.

The values above are taken from PMC4336329 (PLoS ONE, 2015).
